# Among all 420,000 compounds or so, about 50,000 (12%) were called active. Inconclusive means that the source gave no clear call. Such entries were picked first, then a sample of the others. The call rests on the fitted dose curve; in most records, active means well fitted inhibition curve with a large enough effect; inconclusive means small, poorly fitted or top-dose-only effect; inactive means flat fitted curve, though single readings scatter. Potencies of inconclusive entries are left out as doubtful fits.
# Assay: qHTS for Inhibitors of human tyrosyl-DNA phosphodiesterase 1 (TDP1): qHTS in cells in presence of CPT; further: nearly all actives have a fitted effect of over 55% in size
# Conditions: chicken DT40 Tdp1-/-;hTDP1 cells + 20 nM CPT, ATP luminescence, 48 h; series mostly up to 46.2 µM
# Method in brief: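 Cell growth measured by CellTiter-Glo luminescence after a minimum 48 h, 37 C compound exposure with 20 nM CPT in Tdp1-knockout DT40 cells stably expressing hTDP1, seeded 400/well; qHTS titration format.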
# Potency means the concentration at half of the fitted maximal effect; tags describe the fitted curve by direction and shape.
row,Structure (SMILES),Potency
1,CCN(Cc1ccccc1)C(=O)COC(=O)CNC(=O)c1ccc(C)s1,inactive
2,CC(C)CCNC(=O)NC(=O)CSc1ccc(S(=O)(=O)N2CCOCC2)cn1,"inconclusive [inhibitor, partial curve, poor fit]"
3,COCCn1ccc2c(OCC(=O)Nc3cc(OC)ccc3OC)cccc2c1=O,"inconclusive [inhibitor, single point]"
4,Cc1ccc(CSc2nc3ccncc3n2Cc2nc(-c3ccc(Cl)cc3)oc2C)cc1,"inconclusive [inhibitor, single point]"
5,Nc1c(NCc2ccccc2)c(=O)[nH]c(=O)n1Cc1ccccc1,"inconclusive [inhibitor, single point]"
6,COc1ccc(-c2nc(CCNC(=O)c3ccco3)cs2)cc1OC,"inconclusive [inhibitor, single point]"
7,O=C(Oc1ccccc1F)C1CCN(C(=O)c2ccc(F)cc2)CC1,inactive
8,COc1ccccc1CNC(=O)C1CCN(S(=O)(=O)N2CCCCC2)CC1,inactive
9,Cc1ccc2nc(-c3ccc(NC(=O)CN4C(=O)c5ccccc5C4=O)cc3)sc2c1,"inconclusive [inhibitor, single point]"
10,COC(=O)c1cc(OC)c(OC)cc1NC(=S)Nc1cc(Cl)ccc1OC,"inconclusive [inhibitor, single point]"
11,COc1ccc(CC(=O)OCC(=O)NCc2ccco2)cc1OC,inactive
12,CN(C)c1ccc(/C=C2\C=Cc3ccccc32)cc1,inactive
13,O=C1N[C@@H](c2ccccc2)COC(=O)[C@@H](Cc2ccc(F)cc2)C/C=C\C[C@@H]1CC(=O)N(CCO)Cc1ccccc1,active: 14.6 µM
14,O=C(NC(=S)Nc1ccccc1C(=O)O)c1cncc(Br)c1,"inconclusive [inhibitor, partial curve]"
15,O=Cc1c(N2CCN(c3cccc(Cl)c3)CC2)nc2ccccn2c1=O,inactive
16,COc1cccc(NC(=O)CSc2c(C)cnc3c2c(=O)n(C)c(=O)n3C)c1,"inconclusive [inhibitor, single point]"
17,CC(C)CC(=O)Nc1ccccc1N1CCN(c2ccccc2)CC1,"inconclusive [inhibitor, single point]"
18,O=C(CCc1ccccc1)NNC(=S)NCCc1ccccc1,"inconclusive [inhibitor, single point]"
19,CN(CC(=O)NCc1ccc(F)cc1)Cc1ccc(Br)cc1,inactive
20,O=C(c1cc2nc(-c3ccco3)cc(C(F)(F)F)n2n1)N1CCCCCC1,"inconclusive [inhibitor, single point]"

# — PubChem BioAssay AID686979 (National Center for Advancing Translational Sciences (NCATS), 2013)
